Test results taken from PubChem BioAssay AID743255 (National Center for Advancing Translational Sciences (NCATS), 2014).
Among all 390,000 compounds or so, about 910 (0.23%) were called active. About 5% were inconclusive and are not listed. The call rests on the fitted dose curve; in most records, active means well fitted inhibition curve with a large enough effect; inconclusive means small, poorly fitted or top-dose-only effect; inactive means no such curve, though single readings can be large or run the other way. Only a part is listed here, and it is no random draw.

Biological target: Ubiquitin carboxyl-terminal hydrolase 1 (Homo sapiens) (UniProt O94782)
Chain of UniProt O94782 (O94782 whole entry, looked up): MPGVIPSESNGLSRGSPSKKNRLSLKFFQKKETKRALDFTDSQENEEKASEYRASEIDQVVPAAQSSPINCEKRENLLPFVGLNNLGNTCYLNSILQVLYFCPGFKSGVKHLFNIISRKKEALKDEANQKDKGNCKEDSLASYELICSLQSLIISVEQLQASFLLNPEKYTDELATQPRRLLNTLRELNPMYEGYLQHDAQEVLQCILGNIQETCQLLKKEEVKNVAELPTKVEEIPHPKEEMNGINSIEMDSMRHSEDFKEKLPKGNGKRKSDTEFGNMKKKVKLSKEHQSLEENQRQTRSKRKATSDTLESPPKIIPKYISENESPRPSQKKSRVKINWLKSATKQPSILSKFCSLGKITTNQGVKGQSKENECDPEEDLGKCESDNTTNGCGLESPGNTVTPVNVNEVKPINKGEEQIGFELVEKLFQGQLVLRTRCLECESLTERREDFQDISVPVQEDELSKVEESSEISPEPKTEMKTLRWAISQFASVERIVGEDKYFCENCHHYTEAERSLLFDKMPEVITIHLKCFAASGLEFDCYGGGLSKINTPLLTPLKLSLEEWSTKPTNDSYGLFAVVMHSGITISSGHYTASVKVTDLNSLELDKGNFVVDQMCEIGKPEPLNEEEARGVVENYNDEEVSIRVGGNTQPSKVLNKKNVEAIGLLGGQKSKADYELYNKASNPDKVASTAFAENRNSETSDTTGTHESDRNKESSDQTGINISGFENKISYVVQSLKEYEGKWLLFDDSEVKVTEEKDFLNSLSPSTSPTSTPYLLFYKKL
Experiment: Inhibitors of USP1/UAF1: Primary Screen; further: nearly all actives have a fitted effect of over 60% in size
Details: recombinant USP1/UAF1, Ub-Rhodamine cleavage fluorescence; activity change, negative = inhibition: at 57.1 µM (top of the series)
In short: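 High-throughput fluorogenic screen: 1nM USP1/UAF1 complex, Ub-Rho substrate 150nM final, 50mM HEPES pH 7.8 with 0.5mM EDTA, 0.1 mg/ml BSA, 1mM TCEP and 0.01% Tween-20.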
On the % scale 0 is the no-effect control and ±100 the full control effect; potency means the concentration at half of the fitted maximal effect.

Potency, active:
O=C(O)c1ccccc1-c1ccc(/C=C/c2cc(C(F)(F)F)[nH]c(=O)n2)o1 28.2 µM
COc1ccc(NC(=O)CSc2ccc3c4c(cccc24)C(=O)c2ccccc2-3)cc1 25.1 µM
CCOC(=O)c1c(C)sc(-c2c(-c3cccc(Cl)c3)[nH]c3c2c(=O)n(C)c(=O)n3C)c1O 15.8 µM
COc1cc2c(C#N)c(N3CCCC3)nc(N)c2c(N)n1 7.94 µM
COc1ccc(C2C(C(=O)c3cccs3)=C(O)C(=O)N2c2nncs2)cc1 (configuration not stated) 2 µM
O=C1c2cccc3c(O)ccc(c23)C(=O)N1Cc1ccco1 28.2 µM
O=C(NCc1cccc(F)c1)c1cccc2c1C(=O)c1ccc(N3CCC(Cc4ccccc4)CC3)cc1S2(=O)=O 7.94 µM
Cc1cc2nc3c(=O)n(CCc4ccccc4)c(=O)[nH]c3nc2cc1N 17.8 µM
O=C1C=C(N(CCO)Cc2ccccc2)c2ccccc2C1=O 3.55 µM

Activity change, negative = inhibition, inactive:
Cc1ccc([C@H]2C[C@@H](n3cc(COC(=O)c4ccccc4)nn3)[C@H](O)CN2C(=O)c2cccs2)cc1 -10.6%
CCOC(=O)N1CCN(c2nc3ccccc3nc2C(C#N)C(=O)NCCc2ccccc2)CC1 (configuration not stated) -15.9%
Cc1cccc(S(=O)(=O)N(C)C[C@@H]2OCc3cnnn3CCCC(=O)N([C@H](C)CO)C[C@H]2C)c1 -11.7%
C[C@@H]1CN([C@@H](C)CO)C(=O)CCCn2nncc2CO[C@H]1CN(C)Cc1ccc(Oc2ccccc2)cc1 -24.9%
COc1ccc(NC(=O)c2ccc(NC(=O)CCS(=O)(=O)c3cccs3)cc2)cc1 -18.4%
C[C@H]1CN([C@@H](C)CO)C(=O)CCCn2nncc2CO[C@H]1CN(C)S(=O)(=O)c1ccc(Cl)cc1 -19.9%
C=CC[C@@H](CC(=O)NCCO)C(=O)N[C@@H](COC(=O)[C@@H](CC=C)CC(=O)OC(C)(C)C)Cc1c[nH]c2ccccc12 -30.7%
CCOC(=O)N1C(=O)[C@](CC)(c2ccccc2)N1C(=O)OCC -23.7%
Cc1ccc(C(=O)Nc2cccc(C(F)(F)F)c2)cc1NC(=O)c1ccno1 -26.7%
O=c1[nH]c(C2CCCN(S(=O)(=O)c3ccccc3)C2)nc2c1nnn2Cc1ccccc1Br (configuration not stated) -1.59%
OCC[C@H]1C[C@@H](O)[C@H](O)[C@@]2(CCCc3ccccc3O2)O1 6.74%
CCOc1ccc(NS(=O)(=O)c2c(C)nc3sc(CC)nn3c2=O)cc1 5.74%
C=CCC[C@H](Cc1ccc(F)cc1)C(=O)OC[C@@H](Cc1c[nH]c2ccccc12)NC(=O)[C@@H](CC=C)CC(=O)NCCO 1.53%
CCOC(=O)[C@@H]1[C@H]2COc3cc(OC)ccc3[C@@H]2N2C(=O)N(c3ccc(Br)cc3)C(=O)[C@]12C -25.8%
CCCCCC(=O)N1C[C@@H](O)[C@H](n2cc(COC(=O)c3ccccc3)nn2)C[C@@H]1c1ccc(C)cc1 -10.7%
C=CCC[C@@H](Cc1ccc(F)cc1)C(=O)OC[C@@H](Cc1c[nH]c2ccccc12)NC(=O)[C@H](CC=C)CC(=O)N(CCO)Cc1ccccc1 -32.7%
C[C@@H]1COC(=O)[C@@H](CC(=O)OC(C)(C)C)C/C=C\C[C@@H](CC(=O)NCCO)C(=O)N1 -28.2%
C=CC[C@@H](CC(=O)N(CCO)Cc1ccccc1)C(=O)N[C@@H](COC(=O)[C@@H](CC=C)Cc1ccc(F)cc1)Cc1ccccc1 -29.6%
CN(C[C@H](Cc1ccccc1)N(C[C@@H](Cc1cccc2ccccc12)N(CCc1ccccc1)N=O)N=O)N=O -28.9%
CC1CCCN(c2nc3ccccc3nc2C(C#N)S(=O)(=O)c2ccccc2)C1 (configuration not stated) 205%
COc1ccc(/C=C2/CCc3ccccc3C2=O)cc1CN1CCOCC1 -5.72%
Cc1cccc(/C=C/c2onc(C)c2S(=O)(=O)N2CCC(C(=O)N3CCC(C)CC3)CC2)c1 -11.5%
C=CC[C@H](CC(=O)OC(C)(C)C)C(=O)OC[C@@H]1CCCN1C(=O)[C@H](CC=C)CC(=O)N[C@H](CO)Cc1ccccc1 -26.7%
CCN(CC)c1ccc2c(Cl)c(Br)c(=O)oc2c1 74%
COc1ccc(-c2cc(C)no2)cc1S(=O)(=O)NCc1ccc(OC(C)C)cc1 -8.06%
C=C(C)C(=O)Nc1cccc(C2=NOC3(C2)C[C@H](C(N)=O)N(C(=O)c2ccccc2)C3)c1 (some centres not stated) 55.6%
CCOc1ccc(/C=C(\C#N)c2nc(-c3cc4ccccc4oc3=O)cs2)c(OCC)c1 73.1%
O=C(C[C@@H]1C/C=C/CC[C@@H](Cc2ccc(F)cc2)C(=O)OC[C@H](Cc2ccccc2)NC1=O)N[C@H](CO)Cc1ccccc1 -14.6%
CCOc1ccc(NC(=O)C(NC(=O)C2CCC(C)CC2)C(C)C)cc1 (configuration not stated) -15%
C[C@@H]1CN([C@@H](C)CO)C(=O)CCCn2nncc2CO[C@H]1CN(C)S(=O)(=O)c1ccc(-n2cccn2)cc1 2.71%
COc1ccc(N2CCN(C(=O)c3ccc(CS(=O)(=O)c4ccc(Br)cc4)o3)CC2)cc1 -15.3%
COC(=O)N1N=C(c2ccccc2)CC1(O)C(F)(F)F (configuration not stated) -24.8%
OCC[C@H]1C[C@@H](O)[C@H](O)[C@@]2(CCCO2)O1 -0.945%
CCC(Oc1ccccc1)C(=O)Nc1nnc(S(=O)(=O)N2CCCC2)s1 (configuration not stated) 6.22%
CC(=Nc1ccc(O)cc1)c1sc2ccccc2c1O 113%
Cc1ccc(N2CC(C(=O)NCCS(=O)(=O)N3CCN(c4ccc(F)cc4)CC3)CC2=O)cc1 (configuration not stated) -29.2%
CC(=O)Oc1cccc2c1C(=O)c1c(OC(C)=O)cc(C(=O)O)cc1C2=O 11%
COc1ccc(Cl)cc1S(=O)(=O)Nc1ccc2c(c1)n(C)c(=O)n2C -23.4%
C[C@@H]1CN(S(=O)(=O)C(C)(C)C)[C@@H](CCO)/C1=C\c1ccccc1 -20.9%
CCOc1ccc(N(CC(=O)NCc2ccc(C)cc2)S(=O)(=O)c2c(C)[nH]c(=O)[nH]c2=O)cc1 4.21%
COc1ccccc1NC(=O)N(C)C[C@H]1OCc2cn(nn2)CCCC(=O)N([C@@H](C)CO)C[C@@H]1C -9.3%
Cc1noc(C)c1NC(=O)Nc1cccc2c1O[C@H](CN(C)C(=O)Nc1ccc3c(c1)OCO3)[C@@H](C)CN([C@H](C)CO)C2=O -12.5%
CC(C)(C)OC(=O)C[C@H]1C/C=C\C[C@@H](CC(=O)N[C@H](CO)Cc2ccccc2)C(=O)NC[C@@H](c2ccccc2)OC1=O -14%
